{"source": "paper PMC6919601", "about": "“Identification of Plasmodium dipeptidyl aminopeptidase allosteric inhibitors by high throughput screening” (PLoS ONE, 2019)", "note": "The campaign covered roughly 110,000 compounds. About 230 (0.21%) showed an effect of 50% or more. Some of the results follow.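 Note: 30 min substrate incubation versus DMSO and 10 µM JCP410 controls.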"}
{"target": "DPAP1 (Plasmodium falciparum, UniProt Q8IIJ9)", "sequence (Q8IIJ9 whole entry, looked up)": "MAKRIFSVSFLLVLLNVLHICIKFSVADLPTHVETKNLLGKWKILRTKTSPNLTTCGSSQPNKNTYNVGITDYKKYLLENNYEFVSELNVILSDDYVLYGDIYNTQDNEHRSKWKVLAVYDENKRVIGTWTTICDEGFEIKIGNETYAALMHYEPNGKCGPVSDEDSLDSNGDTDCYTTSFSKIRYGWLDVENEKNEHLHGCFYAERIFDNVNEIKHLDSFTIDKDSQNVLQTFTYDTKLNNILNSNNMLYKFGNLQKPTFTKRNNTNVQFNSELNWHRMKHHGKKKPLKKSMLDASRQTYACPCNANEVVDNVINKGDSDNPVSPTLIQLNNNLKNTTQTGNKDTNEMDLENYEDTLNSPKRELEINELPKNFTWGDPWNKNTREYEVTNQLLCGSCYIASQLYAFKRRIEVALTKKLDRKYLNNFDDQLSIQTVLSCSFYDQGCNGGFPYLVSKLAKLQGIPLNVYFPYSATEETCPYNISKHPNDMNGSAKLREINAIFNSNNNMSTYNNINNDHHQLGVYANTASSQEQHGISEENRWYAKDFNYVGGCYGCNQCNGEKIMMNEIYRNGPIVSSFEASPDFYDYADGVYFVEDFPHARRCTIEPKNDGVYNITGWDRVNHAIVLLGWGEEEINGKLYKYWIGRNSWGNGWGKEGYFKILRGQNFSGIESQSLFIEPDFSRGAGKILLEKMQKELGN", "assay": "primary screen, percent inhibition; read by cleavage of a fluorogenic dipeptide substrate; higher = more effect of the substance", "set-up": "species or system P. falciparum D10 trophozoite lysates; single well", "units": {"% Inhibition @ 10 uM": "%"}}
{"smiles": "CCCc1nc(SC)ncc1C(=O)NCCCc1ccccc1", "% Inhibition @ 10 uM": 1.25}
{"smiles": "O=S1(=O)C(/C=N/CCc2ccccc2)=C(O)c2sccc2N1Cc1ccccc1", "% Inhibition @ 10 uM": -5.97}
{"smiles": "CCN(Cc1ccccc1)C(=O)c1cccc(C)c1", "% Inhibition @ 10 uM": 2.46}
{"smiles": "CC(C)C[C@H](NC(=O)c1cc2c(C(F)(F)F)nn(C)c2s1)C(=O)NCC#N", "% Inhibition @ 10 uM": -1.82}
{"smiles": "COc1ccc(OC)c(NC(=O)CN(c2cc(Cl)ccc2C)S(=O)(=O)c2ccccc2)c1", "% Inhibition @ 10 uM": -6.39}
{"smiles": "COc1ccc(OC)c(NS(=O)(=O)c2ccc(Cl)cc2)c1", "% Inhibition @ 10 uM": 5.06}
{"smiles": "CCOC(=O)N1CCC(N2Cc3cccc(C(=O)NC(C)CCc4ccccc4)c3C2=O)CC1", "note": "(stereo not shown)", "% Inhibition @ 10 uM": -4.14}
{"smiles": "CCOc1ccc(CCNS(=O)(=O)c2ccc(C(=O)O)cc2)cc1OCC", "% Inhibition @ 10 uM": 2.72}
{"smiles": "COC(=O)c1cc(C)nc2c1c(=O)n(C)c(=O)n2C", "% Inhibition @ 10 uM": 5.58}
{"smiles": "O=C(/C=C/c1ccc2c(c1)OCO2)N1CCN(c2ccc(F)cc2)CC1", "% Inhibition @ 10 uM": 0.0538}
{"smiles": "Cc1ccc(S(=O)(=O)N2CCC(C(=O)NC(C)C)CC2)cc1", "% Inhibition @ 10 uM": 0.583}
{"smiles": "Cc1ccc(Cl)cc1N(CC(=O)N1CCN(C)CC1)S(C)(=O)=O", "% Inhibition @ 10 uM": -6.4}
{"smiles": "Cc1noc(C(=O)NCC2CCCO2)c1Cl", "note": "(stereo not shown)", "% Inhibition @ 10 uM": -7.13}
{"smiles": "Cc1ccc(-c2c(NCCc3sccc3C)c(=O)c2=O)cc1C", "% Inhibition @ 10 uM": -1.15}
{"smiles": "CCOC(=O)Nc1ccc2c(c1)N(C(=O)CN1CCOCC1)c1ccccc1CC2", "% Inhibition @ 10 uM": -0.736}
{"smiles": "COc1ccc(C2CC(=O)C(/C=N/c3ccc(Cl)c(Cl)c3)=C(O)C2)cc1", "note": "(stereo not shown)", "% Inhibition @ 10 uM": 5.47}
{"smiles": "CC(C)(C)NS(=O)(=O)c1ccccc1[N+](=O)[O-]", "% Inhibition @ 10 uM": -4.01}
{"smiles": "O=C(NCc1ccco1)c1cccc(COc2ccc(Cl)cc2Cl)c1", "% Inhibition @ 10 uM": -3.13}
{"smiles": "CC1=C(C(=O)NC(C)CCc2ccco2)C2(CCCCC2)OC1=O", "note": "(stereo not shown)", "% Inhibition @ 10 uM": 6.31}
{"smiles": "CCOc1ccc(N(CC(=O)N2CCCC2)S(=O)(=O)c2ccc(Cl)cc2)cc1", "% Inhibition @ 10 uM": -5.92}
{"smiles": "COc1cc2c(cc1OC)CN(C(=O)CSc1nc(-c3cccnc3)ccc1C#N)CC2", "% Inhibition @ 10 uM": 3.99}
{"smiles": "OCCN(CCO)c1ncnc2sc3c(c12)CCCC3", "% Inhibition @ 10 uM": -11.1}
{"smiles": "COc1ccc(S(=O)(=O)N(C)CC(=O)NCc2ccco2)cc1OC", "% Inhibition @ 10 uM": 1.19}
{"smiles": "Cc1cc(/C=C2\\SC(=O)N(C)C2=O)c(C)n1-c1ccc2c(c1)OCO2", "% Inhibition @ 10 uM": 0.146}
{"smiles": "CC(C)(O)C(=O)/C=C/c1ccc(Cl)cc1Cl", "% Inhibition @ 10 uM": -4.21}
{"smiles": "CC(C)c1ccc(C2C3=C(O)CC(C)(C)CC3=NC3=C2C(=O)CC(C)(C)C3)cc1", "note": "(stereo not shown)", "% Inhibition @ 10 uM": -0.759}
{"smiles": "Cc1cccc(CN2CCN(C(=O)c3ccncc3)CC2)c1", "% Inhibition @ 10 uM": 5.29}
{"smiles": "O=C(CN(c1ccc(Cl)cc1Cl)S(=O)(=O)c1ccccc1)NCc1ccncc1", "% Inhibition @ 10 uM": 2.63}
{"smiles": "O=C(NCc1cccnc1)c1cccc2ccccc12", "% Inhibition @ 10 uM": -1.68}
{"smiles": "CC(=O)N1c2ccccc2N=C2CC(c3ccc(C(C)(C)C)cc3)CC(O)=C2C1c1ccncc1", "note": "(stereo not shown)", "% Inhibition @ 10 uM": 3.05}
{"smiles": "CC(C)N(C(=O)Cn1cc(SCC(=O)NCCc2ccccc2)c2ccccc21)C(C)C", "% Inhibition @ 10 uM": 2.46}
{"smiles": "O=C(CNC(=O)OCc1ccccc1)Oc1c(Cl)c(Cl)c(Cl)c(Cl)c1Cl", "% Inhibition @ 10 uM": -3.65}
{"smiles": "O=C(Nc1nc2c(s1)C(=O)CCC2)c1ccccc1", "% Inhibition @ 10 uM": -5.51}
{"smiles": "Cc1cccc(OCC(=O)Nc2ccc(S(=O)(=O)N3CCC(C)CC3)cc2)c1", "% Inhibition @ 10 uM": -5.95}
{"smiles": "O=c1onc(-c2cccs2)n1Cc1ccc(F)cc1Cl", "% Inhibition @ 10 uM": -0.0652}
{"smiles": "O=C(O)C1Cc2c([nH]c3ccccc23)C(c2cc([N+](=O)[O-])ccc2O)N1", "note": "(stereo not shown)", "% Inhibition @ 10 uM": -0.415}
{"smiles": "CCOc1ccccc1N(CC(=O)Nc1ccccc1C(C)C)S(C)(=O)=O", "% Inhibition @ 10 uM": -11}
{"smiles": "Clc1ccc(N2N=C(/C=C/c3ccccc3)CC2c2ccccc2)cc1", "note": "(stereo not shown)", "% Inhibition @ 10 uM": 5.77}
{"smiles": "COc1ccc(NC(=O)c2ccc3c(c2)C(=O)N(c2ccccc2OC)C3=O)c(OC)c1", "% Inhibition @ 10 uM": 3.24}
{"smiles": "CC(C)c1ccc(OCCCCCN2CCOCC2)cc1", "% Inhibition @ 10 uM": -1.17}
{"smiles": "COc1ccc2oc(/C=C/N(C)C)c(C(=O)c3ccc(Br)cc3)c2c1", "% Inhibition @ 10 uM": 3}
{"smiles": "CS(=O)(=O)/N=C/N[C@@H](CS(=O)(=O)Cc1ccccc1OC(F)F)C(=O)NCC#N", "% Inhibition @ 10 uM": -6.78}
{"smiles": "OC1c2ccccc2CCc2ccc3ccccc3c21", "note": "(stereo not shown)", "% Inhibition @ 10 uM": 0.726}
{"smiles": "Cc1c(Cl)cccc1NS(=O)(=O)c1ccccc1", "% Inhibition @ 10 uM": -0.197}
{"smiles": "COc1cc(C(=O)O/N=C(\\C)c2ccc(Cl)cc2)cc(OC)c1OC", "% Inhibition @ 10 uM": 4.42}
{"smiles": "CCc1ccc(S(=O)(=O)c2nnn3c2nc(NCc2ccco2)c2cc(Cl)ccc23)cc1", "% Inhibition @ 10 uM": -8.58}
{"smiles": "CCOc1ccc2ncc(S(=O)(=O)c3ccccc3)c(N3CCCC3)c2c1", "% Inhibition @ 10 uM": 1.62}
{"smiles": "CCC(C)NC(=O)c1cnn2c1NC(c1ccc(OC)cc1)CC2C(F)(F)F", "note": "(stereo not shown)", "% Inhibition @ 10 uM": 7.93}
{"smiles": "OC(COCC1COc2ccccc2O1)CN1CCN(Cc2ccccc2)CC1", "note": "(stereo not shown)", "% Inhibition @ 10 uM": -4.21}
